# Experimental data from the supplement of paper PMC8728848.
# The list shows a part of the results.
# B1: Gal 8 (Homo sapiens), O00214_1 (protein)
# chain: MMLSLNNLQNIIYNPVIPFVGTIPDQLDPGTLIVIRGHVPSDADRFQVDLQNGSSMKPRADVAFHFNPRFKRAGCIVCNTLINEKWGREEITYDTPFKREKSFEIVIMVLKDKFQVAVNGKHTLLYGHRIGPEKIDTLGIYGKVNIHSIGFSFSSDLQSTQASSLELTEISRENVPKSGTPQLRLPFAARLNTPMGPGRTVVVKGEVNANAKSFNVDLLAGKSKDIALHLNPRLNIKAFVRNSFLQESWGEEERNITSFPFSPGMYFEMIIYCDVREFKVAVNGVHSLEYKHRFKELSSIDTLEINGDIHLLEVRSW
# Legend:
# Test in all cases: glycan array binding signal (z-score within array); higher = stronger binding
# Settings in all cases: glycan notation: IUPAC condensed, linker removed
# [1] = target: GlcNAc(a1-4)Gal(b1-4)GlcNAc
# Method in brief: (§1)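 The binding signal is a Z-score computed within each array. Data were drawn from 3228 arrays in the Consortium for Functional Glycomics database, restricted to those with a known protein sequence. Scores were averaged over arrays of the same protein sequence at different concentrations or buffers, and over linkers, and negative values can be taken as non-binding.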
# [2] = target: GlcNAc(a1-4)Gal(b1-4)GlcNAc(b1-3)Gal(b1-4)Glc
# Method in brief: as §1
# [3] = target: GlcNAc(a1-4)Gal(b1-4)GlcNAc(b1-3)Gal(b1-4)GlcNAc
# Method in brief: as §1
# [4] = target: GlcNAc(a1-4)Gal(b1-4)GlcNAc(b1-3)Gal(b1-4)GlcNAc(b1-3)Gal(b1-4)GlcNAc
# Method in brief: as §1
# [5] = target: GlcNAc(a1-4)Gal(b1-4)GlcNAc(b1-3)Gal(b1-4)[Fuc(a1-3)]GlcNAc(b1-3)Gal(b1-4)[Fuc(a1-3)]GlcNAc
# Method in brief: as §1
# [6] = target: GlcNAc(a1-6)Gal(b1-4)GlcNAc
# Method in brief: as §1
# [7] = target: GlcNAc(b1-2)Gal(b1-3)GalNAc
# Method in brief: as §1
# [8] = target: GlcNAc(b1-2)Man(a1-3)[GlcNAc(b1-2)Man(a1-6)]Man(b1-4)GlcNAc(b1-4)GlcNAc
# Method in brief: as §1
# [9] = target: GlcNAc(b1-2)Man(a1-3)[GlcNAc(b1-2)Man(a1-6)]Man(b1-4)GlcNAc(b1-4)[Fuc(a1-6)]GlcNAc
# Method in brief: as §1
# [10] = target: GlcNAc(b1-2)Man(a1-3)[GlcNAc(b1-4)][GlcNAc(b1-2)Man(a1-6)]Man(b1-4)GlcNAc(b1-4)GlcNAc
# Method in brief: as §1
# [11] = target: GlcNAc(b1-2)[GlcNAc(b1-4)]Man(a1-3)[GlcNAc(b1-2)Man(a1-6)]Man(b1-4)GlcNAc(b1-4)GlcNAc
# Method in brief: as §1
# [12] = target: GlcNAc(b1-2)[GlcNAc(b1-4)]Man(a1-3)[GlcNAc(b1-4)][GlcNAc(b1-2)Man(a1-6)]Man(b1-4)GlcNAc(b1-4)GlcNAc
# Method in brief: as §1
# [13] = target: GlcNAc(b1-2)[GlcNAc(b1-4)]Man(a1-3)[GlcNAc(b1-4)][GlcNAc(b1-2)[GlcNAc(b1-6)]Man(a1-6)]Man(b1-4)GlcNAc(b1-4)GlcNAc
# Method in brief: as §1
# [14] = target: GlcNAc(b1-2)[GlcNAc(b1-4)]Man(a1-3)[GlcNAc(b1-4)][GlcNAc(b1-2)[GlcNAc(b1-6)]Man(a1-6)]Man(b1-4)GlcNAc(b1-4)[Fuc(a1-6)]GlcNAc
# Method in brief: as §1
# [15] = target: GlcNAc(b1-2)[GlcNAc(b1-6)]Man(a1-6)[GlcNAc(b1-2)Man(a1-3)]Man(b1-4)GlcNAc(b1-4)GlcNAc
# Method in brief: as §1
# [16] = target: GlcNAc(b1-2)[GlcNAc(b1-6)]Man(a1-6)[GlcNAc(b1-2)Man(a1-3)]Man(b1-4)GlcNAc(b1-4)[Fuc(a1-6)]GlcNAc
# Method in brief: as §1
# [17] = target: GlcNAc(b1-2)[GlcNAc(b1-6)]Man(a1-6)[GlcNAc(b1-2)Man(a1-3)][GlcNAc(b1-4)]Man(b1-4)GlcNAc(b1-4)GlcNAc
# Method in brief: as §1
# GlcNAc(b1-3)Gal = target: GlcNAc(b1-3)Gal
# Method in brief: as §1
# [18] = target: GlcNAc(b1-3)Gal(b1-3)GalNAc
# Method in brief: as §1
# GlcNAc(b1-3)Gal(b1-4)Glc = target: GlcNAc(b1-3)Gal(b1-4)Glc
# Method in brief: as §1
# [19] = target: GlcNAc(b1-3)Gal(b1-4)GlcNAc
# Method in brief: as §1
# [20] = target: GlcNAc(b1-3)Gal(b1-4)GlcNAc(b1-3)Gal(b1-4)GlcNAc
# Method in brief: as §1
# GlcNAc(b1-3)GalNAc = target: GlcNAc(b1-3)GalNAc
# Method in brief: as §1
# GlcNAc(b1-3)Man = target: GlcNAc(b1-3)Man
# Method in brief: as §1
# [21] = target: GlcNAc(b1-3)[GlcNAc(b1-4)][GlcNAc(b1-6)]GlcNAc
# Method in brief: as §1
# [22] = target: GlcNAc(b1-3)[GlcNAc(b1-6)]Gal(b1-4)GlcNAc
# Method in brief: as §1
# [23] = target: GlcNAc(b1-3)[GlcNAc(b1-6)]GalNAc
# Method in brief: as §1
# [24] = target: GlcNAc(b1-4)Gal(b1-4)GlcNAc
# Method in brief: as §1
# GlcNAc(b1-4)GlcNAc = target: GlcNAc(b1-4)GlcNAc
# Method in brief: as §1
# [25] = target: GlcNAc(b1-4)GlcNAc(b1-4)GlcNAc
# Method in brief: as §1
# [26] = target: GlcNAc(b1-4)GlcNAc(b1-4)GlcNAc(b1-4)GlcNAc(b1-4)GlcNAc
# Method in brief: as §1
# [27] = target: GlcNAc(b1-4)GlcNAc(b1-4)GlcNAc(b1-4)GlcNAc(b1-4)GlcNAc(b1-4)GlcNAc
# Method in brief: as §1
# [28] = target: GlcNAc(b1-4)[GlcNAc(b1-6)]GalNAc
# Method in brief: as §1
# [29] = target: GlcNAc(b1-6)Gal(b1-4)GlcNAc
# Method in brief: as §1
# GlcNAc(b1-6)GalNAc = target: GlcNAc(b1-6)GalNAc
# Method in brief: as §1
# GlcNAc3Prop(b1-4)GlcNAc = target: GlcNAc3Prop(b1-4)GlcNAc
# Method in brief: as §1
# [30] = target: GlcNAc6S(b1-3)Gal(b1-4)GlcNAc
# Method in brief: as §1
binder,measurement,setting,value
B1,glycan array binding signal (z-score),[1],-0.198
same,glycan array binding signal (z-score),[2],1.65
same,glycan array binding signal (z-score),[3],1.24
same,glycan array binding signal (z-score),[4],0.834
same,glycan array binding signal (z-score),[5],-0.013
same,glycan array binding signal (z-score),[6],-0.204
same,glycan array binding signal (z-score),[7],-0.197
same,glycan array binding signal (z-score),[8],-0.255
same,glycan array binding signal (z-score),[9],-0.146
same,glycan array binding signal (z-score),[10],-0.303
same,glycan array binding signal (z-score),[11],-0.261
same,glycan array binding signal (z-score),[12],-0.217
same,glycan array binding signal (z-score),[13],-0.271
same,glycan array binding signal (z-score),[14],-0.255
same,glycan array binding signal (z-score),[15],-0.25
same,glycan array binding signal (z-score),[16],-0.13
same,glycan array binding signal (z-score),[17],-0.279
same,glycan array binding signal (z-score),GlcNAc(b1-3)Gal,-0.222
same,glycan array binding signal (z-score),[18],-0.138
same,glycan array binding signal (z-score),GlcNAc(b1-3)Gal(b1-4)Glc,-0.156
same,glycan array binding signal (z-score),[19],-0.187
same,glycan array binding signal (z-score),[20],0.739
same,glycan array binding signal (z-score),GlcNAc(b1-3)GalNAc,-0.261
same,glycan array binding signal (z-score),GlcNAc(b1-3)Man,0.21
same,glycan array binding signal (z-score),[21],-0.227
same,glycan array binding signal (z-score),[22],-0.208
same,glycan array binding signal (z-score),[23],-0.228
same,glycan array binding signal (z-score),[24],-0.28
same,glycan array binding signal (z-score),GlcNAc(b1-4)GlcNAc,-0.187
same,glycan array binding signal (z-score),[25],-0.211
same,glycan array binding signal (z-score),[26],-0.19
same,glycan array binding signal (z-score),[27],-0.209
same,glycan array binding signal (z-score),[28],-0.246
same,glycan array binding signal (z-score),[29],-0.265
same,glycan array binding signal (z-score),GlcNAc(b1-6)GalNAc,-0.225
same,glycan array binding signal (z-score),GlcNAc3Prop(b1-4)GlcNAc,-0.231
same,glycan array binding signal (z-score),[30],-0.585
